Not every entry of the source has a single result; some have several. They are shown here; other results are not. How the calls were made is not given here. An entry can have further records. The values listed for one entry repeat one measurement (runs, samples, wells, individuals or studies). Brackets tell where a record comes from. Letters count within one entry.
Target: Heat shock protein HSP 90-alpha (Homo sapiens) (UniProt P07900)
Assay: Hsp90 blockade concentration-response – dose response (AID 712)
Details: Hsp90 inhibition assay

Row | Structure (SMILES) | IC50
1 | Nc1ccc(O)c2ncccc12 | 27.6 µM [sample A] and 1.56 µM [sample B]
2 | Nc1ccc2ncccc2c1 | inactive [sample A] and inactive: > 50 µM [sample B]

From PubChem BioAssay AID712 (Emory University Molecular Libraries Screening Center, 2007)
